Variants at the background level are over-represented here. Where only a bound is given, the exact number is not on record here.

B1: TPR 5TU (parent)
chain: GGAUCUUCUCGAUCUAACAAAAAAGACAAAUCUGCCACAAAGCUUGAGAGCAUCUUCGGAUGCAGAGGCGGCAGCCUUCGGUGGCGCGAUAGCGCCAACGUUCUCAACUAUGACACGCAAAACGCGUGCUCCGUUGAAUGGAGUUUAUCAUG

Variants of B1 are the subject of the series. The series is described as follows: polymerase ribozyme fitness, log enrichment relative to wild type (log ratio); higher = more active; in vitro selection for triplet polymerase activity. A digest of the protocol:
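Streptavidin-bead capture of gel-excised extended constructs, followed by RT-PCR, closed a single triplicate in vitro selection round. That round began by annealing PCR-built, transcribed mutant libraries of each subunit of a heterodimeric triplet polymerase ribozyme with a biotinylated primer, the partner subunit and triplets, then incubating them frozen at −7 °C. After Illumina sequencing of inputs and outputs, genotypes needed ≥10 input reads and ≥1 read per output. Fitness is the base-2 logarithm of genotype enrichment over wild-type enrichment, using inverse-variance-weighted replicate averages.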
On to A17C A41U U56A C99U A121G A147G, for which the “polymerase ribozyme fitness (log ratio)” value was -3.04. To C18G G50A C96U A115G C116G belongs no more than -4.2. As for C18G A73U G83U G92C G124A, the “polymerase ribozyme fitness (log ratio)” value is no more than -4.2. A17U C87G G88U G140A G143C U148C: the “polymerase ribozyme fitness (log ratio)” value was no more than -4.2.

Regarding A17C A26C U61G U77A C79U C95G, the “polymerase ribozyme fitness (log ratio)” value is no more than -4.2. For the variant A17C C125G G126A, the “polymerase ribozyme fitness (log ratio)” value was -3.65. For the variant A16U C96U A107U U145A U146C, the “polymerase ribozyme fitness (log ratio)” value was no more than -4.2. For A16U A24U G94C C116U G141C, the “polymerase ribozyme fitness (log ratio)” value was no more than -4.2. For A17U G25U U44A G48U C76A C87G A122U G140A, the “polymerase ribozyme fitness (log ratio)” value is no more than -4.2. In the case of A16U C18G A37C U56A U130G G136A, the “polymerase ribozyme fitness (log ratio)” value is no more than -4.2.

Consider A17U U45A U56A C57U C93A A107U A120G G141U, for which the “polymerase ribozyme fitness (log ratio)” value is no more than -4.2. Turning to C18G A30U G42U C43U G59C A91G U102C, the “polymerase ribozyme fitness (log ratio)” value was no more than -4.2. With C18A A19G U33C C54G G81U G84A, the “polymerase ribozyme fitness (log ratio)” value was no more than -4.2. Regarding A17G G84C, the “polymerase ribozyme fitness (log ratio)” value is -1.85. A17C A29U C51U C95U A107U C114U G143C U145G: the “polymerase ribozyme fitness (log ratio)” value is no more than -4.2. For the variant A17G G83U U134A, the “polymerase ribozyme fitness (log ratio)” value was -2.39.

Turning to C18G A24U U33C A37C U44A C51G C54U G80C U145A, the “polymerase ribozyme fitness (log ratio)” value was no more than -4.2. For A16U C108U C114U U135A the value was no more than -4.2; for C18G A120C, -1.21. With C18G A23U A24C C54G C95U G126A U146C, the “polymerase ribozyme fitness (log ratio)” value was no more than -4.2. Turning to A16U A26C U139G U144C, the “polymerase ribozyme fitness (log ratio)” value was no more than -4.2. As for A17U C76G A91C C108G, the “polymerase ribozyme fitness (log ratio)” value is no more than -4.2. As for A17U A19G A30G C38G U45A G88U, the “polymerase ribozyme fitness (log ratio)” value is no more than -4.2.

With A17C U33C G88A C96U U102G C116U A142U, the “polymerase ribozyme fitness (log ratio)” value is no more than -4.2. To A17G A26U A29U G42A G94U A110G A115U G140A belongs no more than -4.2. On to A17C G83C C87A G152U, for which the “polymerase ribozyme fitness (log ratio)” value is no more than -4.2. Take A16U A41C G117C U148G: the “polymerase ribozyme fitness (log ratio)” value was no more than -4.2. Turning to A17G C35U C93A C96A, the “polymerase ribozyme fitness (log ratio)” value is no more than -4.2. For A17U A19G G46C G62U C87G A119C, the “polymerase ribozyme fitness (log ratio)” value is no more than -4.2. To A17C A28G C35G G84A belongs no more than -4.2; to A17G A24C C96U G100C U144G U151A, no more than -4.2.

Take A16U A22U A52C C54G C93G G94U C96G C125G U148G: the “polymerase ribozyme fitness (log ratio)” value was no more than -4.2. As to A17U A28U A52C U77A G83A C125G G141C G143A, the “polymerase ribozyme fitness (log ratio)” value is no more than -4.2. In the case of A17U U55G G68U G84A C103A G152A, the “polymerase ribozyme fitness (log ratio)” value is no more than -4.2. Consider A17G C79A C87A G88A C99U A119C C149G, for which the “polymerase ribozyme fitness (log ratio)” value was no more than -4.2. As for A17U A29C C43G G86A U135C, the “polymerase ribozyme fitness (log ratio)” value is -4.06. As for C18G C93U G143U, the “polymerase ribozyme fitness (log ratio)” value is -3.08.

As for A17C A23G U55A G94A C95A G152U, the “polymerase ribozyme fitness (log ratio)” value is no more than -4.2. Take A16U G92U: the “polymerase ribozyme fitness (log ratio)” value is -2.29. Regarding A16U C35A U45A C95G, the “polymerase ribozyme fitness (log ratio)” value is no more than -4.2. To A16U U53A C87A belongs no more than -4.2.

In the case of A17U U77G G83C U102G C105A, the “polymerase ribozyme fitness (log ratio)” value is no more than -4.2. Regarding A17U A23C A24C A29G G42C G59C C87G A115C, the “polymerase ribozyme fitness (log ratio)” value was no more than -4.2. Take A17C C27G A28G G70C A119G U127G U148C: the “polymerase ribozyme fitness (log ratio)” value was no more than -4.2.

A16U C57G C75G C76U G140C: the “polymerase ribozyme fitness (log ratio)” value was no more than -4.2.

On to A16U U56A G62A U82G C85U A142G, for which the “polymerase ribozyme fitness (log ratio)” value was -4.16. A16U C36A A37U A47C C79A G94A A110G: the “polymerase ribozyme fitness (log ratio)” value is no more than -4.2.

For A17G U33A G58A G74C C85A C95U, the “polymerase ribozyme fitness (log ratio)” value is no more than -4.2. Regarding A16U G42A G86A C99U, the “polymerase ribozyme fitness (log ratio)” value was no more than -4.2.

A16U A40C A47C A97G C99U A119G C125A G133U U139A: the “polymerase ribozyme fitness (log ratio)” value was no more than -4.2. For A17C A21G A40U G86U A122U, the “polymerase ribozyme fitness (log ratio)” value is -1.48. On to A16U G74U, for which the “polymerase ribozyme fitness (log ratio)” value was no more than -4.2. C18U A20U G59A G94A U130G A150G: the “polymerase ribozyme fitness (log ratio)” value is no more than -4.2.

On to C18G A41C A66C C85A G117C U144A, for which the “polymerase ribozyme fitness (log ratio)” value was no more than -4.2. For the variant A17C G88U C95A G117C C129U U148C, the “polymerase ribozyme fitness (log ratio)” value was no more than -4.2.

Turning to A16U A28U A37C G42U U56A C95A U145A C149G, the “polymerase ribozyme fitness (log ratio)” value is no more than -4.2. To A17U C57G U61A G67C G83C G92U G128A belongs no more than -4.2; to A17C A21U A28G C57A A66G G74C A106C, no more than -4.2. Consider C18A A29U G136A, for which the “polymerase ribozyme fitness (log ratio)” value is no more than -4.2. On to A16U A28G A40U U56A U61A U145A, for which the “polymerase ribozyme fitness (log ratio)” value was no more than -4.2. Regarding C18A A20U A22U C85U G88A C108U G143A, the “polymerase ribozyme fitness (log ratio)” value is no more than -4.2. Consider A17G U53A, for which the “polymerase ribozyme fitness (log ratio)” value is -0.401. To C18G C54G U56A G67U C85A C108G belongs no more than -4.2. On to A16U C27G A28U U31C G74U U82A, for which the “polymerase ribozyme fitness (log ratio)” value was no more than -4.2. For C18U A20C U55A G83C C87G A142C A147C, the “polymerase ribozyme fitness (log ratio)” value is no more than -4.2. With A17C U33C G42C C51A U53A U139G A142G, the “polymerase ribozyme fitness (log ratio)” value is no more than -4.2. On to C18A A26G C35U G94U A121G, for which the “polymerase ribozyme fitness (log ratio)” value is no more than -4.2. Turning to A17U G143U U151C, the “polymerase ribozyme fitness (log ratio)” value was no more than -4.2. For C18U A22C U53G C72U C87U C105U C108G, the “polymerase ribozyme fitness (log ratio)” value was no more than -4.2. As to A16U G34A C76U U146G, the “polymerase ribozyme fitness (log ratio)” value is no more than -4.2. To A16U C43G G84C belongs no more than -4.2; to C18U A60G U82A G141C, -0.334.

For the variant A17C G42C U44A C54U C105G, the “polymerase ribozyme fitness (log ratio)” value is no more than -4.2.

For the variant A17U G86C A150C, the “polymerase ribozyme fitness (log ratio)” value was no more than -4.2. As to A17U C93A G100A C103G A113U C125U, the “polymerase ribozyme fitness (log ratio)” value is no more than -4.2. Consider A16G U53G C96U A119C G124C G133C G141C, for which the “polymerase ribozyme fitness (log ratio)” value is no more than -4.2.

For the variant A17C A37C A52U G83U, the “polymerase ribozyme fitness (log ratio)” value was -3.08. In the case of A17C C36A C87A C95U A97C C105U U151G, the “polymerase ribozyme fitness (log ratio)” value was no more than -4.2.

Consider A17U C87U C96U U104C A107U G141U, for which the “polymerase ribozyme fitness (log ratio)” value was no more than -4.2. Regarding A17U U31G A37U G48A A49U G59A A60C G62U C93G A121U, the “polymerase ribozyme fitness (log ratio)” value is no more than -4.2. As for A16U G80C G92A A97U A119C U130G U151A, the “polymerase ribozyme fitness (log ratio)” value was no more than -4.2. With A16U A47C, the “polymerase ribozyme fitness (log ratio)” value is -2.04. For A17C A41U U55A G80U G83U C87U G128U the value was no more than -4.2; for A17C A39U C75U G92C C132A, no more than -4.2.

The values are drawn from the RNAGym collection of RNA variant scans (doi:10.1073/pnas.2313332121).
